According to US20160002343A1 (AbbVie / Abbott, published 2016):

Key:
[1] = biological target: T1, mouse Transferrin Receptor overexpressed on Hek 293 cells (mouse, UniProt Q62351); assay: cell-based MSD-ECL binding, Hek293/mTfR cells
T1 construct: whole, on cells; also called mTfR; Hek293/mTfR
Experimental: (§1) Meso-scale Discovery (MSD) Electrochemiluminescence (ECL) assays to screen for antibodies or DVD-Ig proteins that bind a desired target antigen expressed on the cell surface were performed as follows: Hek 293 cells overexpressing mouse Transferrin Receptor were added onto MSD 96-well plates (MSD Cat# L11 XB-3, lot#2290-EA). The plates which were blocked using blocking buffer (30% FBS Serum (Hyclone) in PBS) at 37° C. for 1 hour. After incubating at room temperature (RT) for 30 minutes with mild agitation, plates were washed with DPBS 3 times and Abs/DVD-Ig proteins (10,000 ng/ml) were added. After incubating for 1 hour at RT, plates were washed 3 times with DPBS and 25 μl of Goat anti-human Sulfo TAG (MSD Cat# R32AC-, Lot# W001162) at 1 μg/ml was added. Following incubation at RT for 1 hour, plates were washed and MSD read buffer was added before reading on a MSD SECTOR Imager 6000. EC50 values were obtained using Xlfit4 software package.

[2] = biological target: T1, mouse Transferrin Receptor …; assay: EC50 column of Table 13, taken as the cell-based mTfR binding assay
Experimental: as §1

T1 sequence (Q62351 whole entry): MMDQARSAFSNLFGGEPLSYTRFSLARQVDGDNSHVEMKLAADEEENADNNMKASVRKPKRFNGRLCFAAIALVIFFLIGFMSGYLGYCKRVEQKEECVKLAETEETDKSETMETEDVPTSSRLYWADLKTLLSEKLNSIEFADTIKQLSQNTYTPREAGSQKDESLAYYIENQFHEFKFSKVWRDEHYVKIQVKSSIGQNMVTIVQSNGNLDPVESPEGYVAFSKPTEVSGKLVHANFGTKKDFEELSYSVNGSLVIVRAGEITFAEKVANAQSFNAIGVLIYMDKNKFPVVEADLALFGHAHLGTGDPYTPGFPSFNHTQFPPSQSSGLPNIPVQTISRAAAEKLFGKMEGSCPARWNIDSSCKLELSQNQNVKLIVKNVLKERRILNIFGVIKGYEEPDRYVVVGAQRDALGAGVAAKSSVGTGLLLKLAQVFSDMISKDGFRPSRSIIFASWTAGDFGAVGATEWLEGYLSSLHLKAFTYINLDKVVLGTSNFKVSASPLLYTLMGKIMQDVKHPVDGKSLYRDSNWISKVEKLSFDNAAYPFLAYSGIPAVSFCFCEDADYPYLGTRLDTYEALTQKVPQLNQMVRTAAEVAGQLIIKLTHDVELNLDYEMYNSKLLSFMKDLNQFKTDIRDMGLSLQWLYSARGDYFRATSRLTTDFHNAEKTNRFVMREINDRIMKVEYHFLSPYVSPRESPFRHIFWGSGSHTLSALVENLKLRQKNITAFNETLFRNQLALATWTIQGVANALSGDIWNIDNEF

Row | Binder | EC50 [1] [nM] | EC50 [2] [nM]
1 | DVD2575 (bispecific antibody, DVD-Ig; also called TfRSSHer2) VH-VH: EVQLVESGGGLVQPGNSLTLSCVASGFTFSNYGMHWIRQAPKKGLEWIAMIYYDSSKMNYADTVKGRFTISRDNSKNTLYLEMNSLRSEDTAMYYCAVPTSHYVVDVWGQGVSVTVSSASTKGP[about 120 residues skipped] VL-VL: DIQMTQSPASLSASLEEIVTITCQASQDIGNWLAWYQQKPGKSPQLLIYGATSLADGVPSRFSGSRSGTQFSLKISRVQVEDIGIYYCLQAYNTPWTFGGGTKLELKRTVAAP[about 100 residues skipped] | 0.11 | 0.1
2 | DVD2576 (bispecific antibody, DVD-Ig; also called Her2ssTfR) VH-VH: [about 120 residues skipped]ASTKGPEVQLVESGGGLVQPGNSLTLSCVASGFTFSNYGMHWIRQAPKKGLEWIAMIYYDSSKMNYADTVKGRFTISRDNSKNTLYLEMNSLRSEDTAMYYCAVPTSHYVVDVWGQGVSVTVSS VL-VL: [about 100 residues skipped]RTVAAPDIQMTQSPASLSASLEEIVTITCQASQDIGNWLAWYQQKPGKSPQLLIYGATSLADGVPSRFSGSRSGTQFSLKISRVQVEDIGIYYCLQAYNTPWTFGGGTKLELK | 3.4 | 3.4
